Test results from patent EP0949243A1, “OPTICALLY ACTIVE METHOXYIMINOACETAMIDE DERIVATIVES, PROCESS FOR THE PREPARATION OF THEM, INTERMEDIATES THEREFOR, AND PESTICIDES CONTAINING THEM AS THE ACTIVE INGREDIENT” (MITSUBISHI CHEMICAL CORPORATION, priority 1996, dated 1998).

Key:
diamond back moth = assay: Insecticidal effect against diamond back moth (Test Example 11); format: in vivo; settings: second instar larvae, cabbage leaf soaked, after 4 days at 25°C; mixtures 1:1
Protocol: After thoroughly air-drying the chemical solution on the leaf surface, the leaf was put into a round cup (8 cm in diameter) (one leaf piece/round cup) together with five second instar larvae of diamond back moth and then kept in a constant temperature room of 25°C.
The evaluation was made by examining the number of live larvae, larvae in agony and dead larvae after 4 days of the treatment and calculating their death rate in the same manner as described in Test Example 9.

CD rats (female) = assay: Oral acute toxicity test using rats (Test Example 3); settings: single oral dosage of 300, 600, 1,200, 2,500 or 5,000 mg/kg
green peach aphid = settings: in vivo
two-spotted spider mite = assay: Acaricidal effect against two-spotted spider mite (Test Example 10); format: in vivo; settings: female adults on kidney bean leaf disks, sprayed, 2 days at 25 ± 1°C; mixtures 1:1
Description: A leaf disk of 2 cm in diameter was cut off using a leaf punch from the first leaf of a kidney bean (variety: Kintoki) raised in a pot of 15 cm in diameter, and each of 8 leaf disks thus prepared was arranged on wet absorbent cotton which was put on a plastic cup of 8 cm in diameter. A total of 5 female adults of two-spotted spider mite were inoculated on each leaf disk.

Compound | LC50 value (ppm) (diamond back moth) | LC50 value (ppm) (green peach aphid) | LC50 value (ppm) (two-spotted spider mite) | further results
CNC(=O)C(=NOC)c1ccccc1C=NO[C@@H](C)c1cccc(C(F)(F)F)c1 (single isomer, unassigned) [compound 2] | 260 ppm | 450 ppm | 1900 ppm | mortality (CD rats (female)): no mortality
O=C(NC(=O)c1c(F)cccc1F)Nc1cc(Cl)c(F)c(Cl)c1F [Known compound g, 1-(3,5-dichloro-2,4-difluorophenyl)-3-(2,6-difluorobenzoyl)urea] | 0.29 ppm |  |  | 
CCc1ccc(C(=O)NN(C(=O)c2cc(C)cc(C)c2)C(C)(C)C)cc1 [Known compound h, N-tert-butyl-N'-(4-ethylbenzoyl)-3,5-dimethylbenzohydrazide] | 23.0 ppm |  |  | 
CCc1nn(C)c(C(=O)NCc2ccc(C(C)(C)C)cc2)c1Cl [Known compound k, N-(4-tert-butylbenzyl)-4-chloro-3-ethyl-1-methylpyrazole-5-carboxamide] |  | 20.0 ppm |  | 
O=[N+]([O-])NC1=NCCN1Cc1ccc(Cl)nc1 [Known compound l, 1-(6-chloro-3-pyridylmethyl)-N-nitroimidazolidin-2-ylideneamine] |  | 0.23 ppm |  | 
CCOCn1c(-c2ccc(Cl)cc2)c(C#N)c(Br)c1C(F)(F)F [Known compound m, 4-bromo-2-(4-chlorophenyl)-1-ethoxymethyl-5-trifluoromethylpyrrole-3-carbonitrile] |  |  | 3.0 ppm | 
OC(c1ccc(Cl)cc1)(c1ccc(Cl)cc1)C(Cl)(Cl)Cl [Known compound n, 2,2,2-trichloro-1,1-bis(4-chlorophenyl)ethanol] |  |  | 19.0 ppm | 
Cc1ccc2nc3sc(=O)sc3nc2c1 [Known compound p, 6-methylquinoxaline-2,3-dithiocarbonate] |  |  | 89.0 ppm | 
